# Numbering of substitutions follows the chain as printed. Names and notes keep the numbering of the source.
# T1: Recombinant human BMP-2 (bone morphogenetic protein 2) (human, UniProt P12643 283-396, biotinylated with Sulfo-NHS-Biotin (bBMP-2) in flow cytometry and BLI)
# T1 construct: Bought protein; also called bBMP-2; bBMP
# T1 sequence (looked up): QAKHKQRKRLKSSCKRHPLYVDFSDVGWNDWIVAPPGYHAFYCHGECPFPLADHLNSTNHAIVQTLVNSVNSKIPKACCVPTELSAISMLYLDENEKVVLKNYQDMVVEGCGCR
# T2: Recombinant VEGF165 (vascular endothelial growth factor) (UniProt P15692-4 27-191, biotinylated (bVEGF) in flow cytometry and BLI)
# T2 construct: also called VEGF-A (165); bVEGF
# T2 sequence (looked up): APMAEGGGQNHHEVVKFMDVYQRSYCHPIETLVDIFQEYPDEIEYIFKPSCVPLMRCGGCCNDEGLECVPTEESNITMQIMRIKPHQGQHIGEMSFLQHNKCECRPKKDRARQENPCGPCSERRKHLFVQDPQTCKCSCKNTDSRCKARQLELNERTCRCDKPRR
# T3: Interleukin-4 (IL-4), biotinylated (UniProt P05112 25-153, biotinylated (bIL-4))
# T3 construct: also called bIL-4
# T3 sequence (looked up): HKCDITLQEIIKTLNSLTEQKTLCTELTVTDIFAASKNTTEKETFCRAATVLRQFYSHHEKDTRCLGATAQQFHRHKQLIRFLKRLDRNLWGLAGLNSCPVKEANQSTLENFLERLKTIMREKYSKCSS
# B1: BMP-2 affibody A2-3 (SEQ ID NO: 7), yeast-displayed (designed binder)
# chain: AEAKYYKERRAAAVVIFYLPNLTRVQKGAFIEALDDDPSQSSELLSEAKKLNDSQAPK
# B2: BMP-2 affibody A3-1 (SEQ ID NO: 8), yeast-displayed (designed binder)
# chain: AEAKYAKERLNAIYVINDLPNLTQGQRVAFARALYNDPSQSSELLSEAKKLNDSQAPK
# B3: BMP-2 affibody B3-3 (SEQ ID NO: 10), yeast-displayed (designed binder)
# chain: AEAKYYKEWVNAYDQIRVLPNLTRFQRLAFYRALYNDPSQSSELLSEAKKLNDSQAPK
# B4: FGF-2 High Affibody FG2-C1 (SEQ ID NO: 42), soluble with hexahistidine tag and C-terminal cysteine (designed binder)
# chain: AEAKYTKEGSDAFDVIVLLPNLTRDQRDAFLYALLDDPSQSSELLSEAKKLNDSQAPKHHHHHHC
# notes: Soluble, expressed in E. coli
# B5: FGF-2 Low Affibody FG3-C4 (SEQ ID NO: 44), soluble with hexahistidine tag and C-terminal cysteine (designed binder)
# chain: AEAKYNKEVFDADCSIWYLPNLTRYQISAFQSALDDDPSQSSELLSEAKKLNDSQAPKHHHHHHC
# notes: Soluble, expressed in E. coli
# B6: BMP-2 affibody A1-1 (SEQ ID NO: 4), yeast-displayed (designed binder)
# chain: AEAKYNKEVTAAANSIWVLPNLTGDQKAAFFEALLDDPSQSSELLSEAKKLNDSQAPK
# B7: FGF-2 affibody FG2-C1 (High) (SEQ ID NO: 42), yeast-displayed (designed binder)
# chain: AEAKYTKEGSDAFDVIVLLPNLTRDQRDAFLYALLDDPSQSSELLSEAKKLNDSQAPK
# notes: also called FGF-2 High Affibody
# B8: FGF-2 affibody FG3-C4 (Low) (SEQ ID NO: 44), yeast-displayed (designed binder)
# chain: AEAKYNKEVFDADCSIWYLPNLTRYQISAFQSALDDDPSQSSELLSEAKKLNDSQAPK
# notes: also called FGF-2 Low Affibody
# B9: VEGF affibody TM2 (High Affinity) (SEQ ID NO: 20), soluble with hexahistidine tag and C-terminal cysteine (designed binder)
# chain: AEAKYYKEGATAYRVIEYLPNLTGAQKAAFIDALYNDPSQSSELLSEAKKLNDSQAPKHHHHHHC
# notes: Soluble, expressed in E. coli; also called VEGF High Affibody
# B10: VEGF Affibody (SEQ ID NO: 22), soluble with hexahistidine tag and C-terminal cysteine (designed binder)
# chain: AEAKYNKEWYDAVFVIGSLPNLTEDQKDAFSDALVDDPSQSSELLSEAKKLNDSQAPKHHHHHHC
# notes: Soluble, expressed in E. coli; also called BR2; original VEGF affibody
# B11: VEGF Affibody-D32A (SEQ ID NO: 78), soluble with hexahistidine tag and C-terminal cysteine (designed binder)
# chain: B10 chain with D32A
# notes: soluble, expressed in E. coli
# B12: VEGF Affibody-D36A (SEQ ID NO: 79), soluble with hexahistidine tag and C-terminal cysteine (designed binder)
# chain: B10 chain with D36A
# notes: soluble, expressed in E. coli
# B13: Low Affinity BMP-2 affibody B4-1 (SEQ ID NO: 3), yeast-displayed (designed binder)
# chain: AEAKYYKEGDNAYNVIYGLPNLTRPQRLAFIVALFNDPSQSSELLSEAKKLNDSQAPK
# B14: PDGF Affibody-11 (SEQ ID NO: 58), soluble with hexahistidine tag and C-terminal cysteine (designed binder)
# chain: AEAKYAHELWEADWEITNLPNLSPDQLMAFYMALWDDPSQSSELLSEAKKLNDSQAPKHHHHHHC
# notes: soluble, expressed in E. coli; also called 0010; 0010/Affibody-11
# B15: PDGF Affibody-16 (SEQ ID NO: 80), soluble with hexahistidine tag and C-terminal cysteine (designed binder)
# chain: AEEKYMMEAHWALMEILNLPNLHPCQQDAFWLALWDDPSQSSELLSEAKKLNDSQAPKHHHHHHC
# notes: soluble, expressed in E. coli; also called 0032; 0032/Affibody-16 (High)
# B16: IL-4 affibody G3H-C3 (SEQ ID NO: 61) (designed binder)
# chain: AEAKYNKELDAADADVEIWLLPNLTLDQLLAFIAALFNDPSQSSELLSEAKKLNDSQAPK
# B17: IL-4 affibody G3H-C7 (SEQ ID NO: 62) (designed binder)
# chain: AEAKYTKELSDANAEIWSLPNLTVDQLVAFIFALWDDPSQSSELLSEAKKLNDSQAPK
# B18: PDGF Affibody (SEQ ID NO: 60), soluble with hexahistidine tag and C-terminal cysteine (designed binder)
# chain: AEAKYAKELDDASVEIWDLPNLTPCQKVAFFVALYDDPSQSSELLSEAKKLNDSQAPKHHHHHHC
# notes: Soluble, expressed in E. coli; also called BM_6; original PDGF affibody
# B19: GM-CSF affibody GM3-C4 (High Affinity) (SEQ ID NO: 12), yeast-displayed (designed binder)
# chain: AEAKYTKELFNAVGEITALPNLTRYHLYAFYYALLNDPSQSSELLSEAKKLNDSQAPK
# B20: GM-CSF affibody GM4-C4 (Mid affinity) (SEQ ID NO: 13), yeast-displayed (designed binder)
# chain: AEAKYNKEWFAADLSIGFLPNLTLDQLYAFVFALYDDPSQSSELLSEAKKLNDSQAPK
# B21: GM-CSF affibody GM4-C3 (Low Affinity) (SEQ ID NO: 14), yeast-displayed (designed binder)
# chain: AEAKYAKEGLNAYLSIRWLPNLTGDQMYAFISALLDDPSQSSELLSEAKKLNDSQAPK
# B22: GM-CSF affibody GM3-C1 (SEQ ID NO: 17), yeast-displayed (designed binder)
# chain: AEAKYNKEVGTANFEIVLLPNLTLYQMLAFIKALVNDPSQSSELLSEAKKLNDSQAPK
# B23: GM-CSF affibody GM4-C2 (SEQ ID NO: 19), yeast-displayed (designed binder)
# chain: AEAKYYKEGFYANFVIGALPNLTLVQRAAFYFALLNDPSQSSELLSEAKKLNDSQAPK
# Tests used:
# [1] = biological target: T1, Recombinant human BMP-2 (bone …); assay: flow cytometry, yeast-displayed affibody titrated with bBMP-2 0.5-1000 nM
# From the text: Yeast clones with names starting with the letter A were identified using the gating approach in FIG. 2A, and yeast clones with names starting with B were identified using the gate approach in FIG. 2B. The affibodies chosen for further characterization are boxed in the legend.
# [2] = biological target: T2, Recombinant VEGF165 (vascular …); assay: biolayer interferometry, 25 nM bVEGF on streptavidin probes, 1000 nM soluble affibody
# [3] = biological target: T4, Recombinant human PDGF-BB (platelet-derived growth factor) (human, UniProt P01127 82-190, biotinylated (bPDGF) in flow cytometry and off-target BLI; not biotinylated in the Ni-NTA BLI); assay: biolayer interferometry, 25 nM bPDGF on streptavidin probes, 1000 nM soluble affibody
# T4 construct: also called rhPDGF-BB; bPDGF
# [4] = biological target: T2, Recombinant VEGF165 (vascular …); assay: flow cytometry, yeast-displayed affibody with biotinylated target
# [5] = biological target: T5, Recombinant FGF-2 (fibroblast growth factor 2) (UniProt P09038 143-288, limits assumed, biotinylated (bFGF-2) in flow cytometry and BLI); assay: yeast surface display, flow cytometry with bFGF-2
# T5 construct: also called bFGF-2; biotinylated FGF-2
# [6] = biological target: T5, Recombinant FGF-2 (fibroblast growth …); assay: biolayer interferometry, 25 nM bFGF-2 on streptavidin probes, 1000 nM soluble affibody
# [7] = biological target: T4, Recombinant human PDGF-BB …; assay: biolayer interferometry, 25 nM bPDGF on streptavidin probes, 1000 nM soluble affibody; remark: listed apart in the source
# [8] = biological target: T2, Recombinant VEGF165 (vascular …); assay: BLI, 25 nM bVEGF on streptavidin probes, soluble affibody 31.25-1000 nM, global fit
# [9] = biological target: T4, Recombinant human PDGF-BB …; assay: biolayer interferometry; 25 nM bPDGF on streptavidin probes, 1000 nM soluble affibody as analyte
# [10] = biological target: T2, Recombinant VEGF165 (vascular …); assay: BLI
# [11] = biological target: T2, Recombinant VEGF165 (vascular …); assay: method not stated in Table 1 (yeast surface display or BLI per paragraph 316)
# [12] = biological target: T2, Recombinant VEGF165 (vascular …); assay: flow cytometry, yeast-displayed affibody with 1000 nM biotinylated target
# [13] = biological target: T6, Granulocyte-macrophage colony-stimulating factor (GM-CSF), biotinylated (UniProt P04141 18-144, biotinylated (bGM-CSF)); assay: as above
# T6 construct: also called bGM-CSF
# [14] = biological target: T2, Recombinant VEGF165 (vascular …); assay: BLI, 25 nM bVEGF on streptavidin probes
# [15] = biological target: T4, Recombinant human PDGF-BB …; assay: BLI, 200 nM His-tagged affibody on Ni-NTA probes, PDGF 1.563-50 nM, global fit
# [16] = biological target: T4, Recombinant human PDGF-BB …; assay: BLI, affibody on Ni-NTA probes, soluble PDGF (method not stated in Table 1)
# [17] = biological target: T3, Interleukin-4 (IL-4), biotinylated; assay: method not stated; Example 16 describes yeast surface display flow cytometry
# [18] = biological target: T6, Granulocyte-macrophage …; assay: yeast surface display, flow cytometry with biotinylated GM-CSF
# T6 sequence (P04141 18-144 limits assumed): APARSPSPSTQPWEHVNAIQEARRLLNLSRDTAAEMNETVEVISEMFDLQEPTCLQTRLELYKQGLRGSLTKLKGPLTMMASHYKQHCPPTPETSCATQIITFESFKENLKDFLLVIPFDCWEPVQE
# T4 sequence (P01127 82-190): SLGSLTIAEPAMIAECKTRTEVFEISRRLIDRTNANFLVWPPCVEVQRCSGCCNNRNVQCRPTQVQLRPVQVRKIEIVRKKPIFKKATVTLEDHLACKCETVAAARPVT
# T5 sequence (P09038 143-288 limits assumed): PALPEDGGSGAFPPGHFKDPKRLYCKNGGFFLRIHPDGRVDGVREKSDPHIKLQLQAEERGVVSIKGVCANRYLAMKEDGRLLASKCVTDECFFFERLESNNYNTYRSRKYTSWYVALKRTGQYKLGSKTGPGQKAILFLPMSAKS
binder,measurement,setting,value
B1,binding result,[1],binds
B2,binding result,[1],binds
B3,EC50 (read off the curve),[1],~20 nM
B4,binding result,[2],no binding (tested: 1000 nM)
same,binding result,[3],binds
B5,binding result,[2],no binding (tested: 1000 nM)
same,binding result,[3],binds
B6,binding result,[1],binds
B7,binding result,[4],no binding
same,Kd,[5],3.08 nM
B8,binding result,[4],no binding
same,Kd,[5],4550 nM
B9,binding result,[6],no binding (tested: 1000 nM)
same,binding result,[7],no binding (tested: 1000 nM)
B10,Kd,[8],89.8 nM
same,koff,[8],0.00386 s⁻¹
same,kon,[8],43000 M⁻¹ s⁻¹
same,binding result,[9],no binding (tested: 1000 nM)
B11,fold reduction in affinity compared to the original VEGF affibody,[10],10000 fold
same,Kd,[8],984000 nM
same,koff,[8],0.00769 s⁻¹
same,Kd,[11],4190 nM
same,binding result,[6],no binding (tested: 1000 nM)
same,binding result,[7],no binding (tested: 1000 nM)
B12,fold reduction in affinity compared to the original VEGF affibody,[10],20 fold
same,Kd,[8],2050 nM
same,koff,[8],0.00837 s⁻¹
same,kon,[8],4080 M⁻¹ s⁻¹
same,Kd,[11],109 nM
same,binding result,[9],no binding (tested: 1000 nM)
B13,binding result,[12],no binding (tested: 1000 nM)
same,binding result,[13],no binding (tested: 1000 nM)
B14,binding result,[14],no binding (tested: 1000 nM)
same,Kd,[15],6.44 nM
same,koff,[15],0.00311 s⁻¹
same,kon,[15],476000 M⁻¹ s⁻¹
same,Kd,[16],6.44 nM
B15,binding result,[14],no binding (tested: 1000 nM)
same,Kd,[15],5.87 nM
same,koff,[15],0.00264 s⁻¹
same,kon,[15],450000 M⁻¹ s⁻¹
same,Kd,[16],5.86 nM
B16,Kd,[17],4 nM
B17,Kd,[17],92000 nM
B18,Kd,[15],3.28 nM
same,koff,[15],0.000592 s⁻¹
same,kon,[15],180000 M⁻¹ s⁻¹
B19,Kd,[18],441 nM
B20,Kd,[18],971 nM
B21,Kd,[18],3780 nM
B22,Kd,[18],297 nM
B23,Kd,[18],787 nM
